Measurements from PubChem BioAssay AID1468 (National Center for Advancing Translational Sciences (NCATS), 2008).
Among all 280,000 compounds or so, about 1,100 (0.39%) were called active. The inconclusive results got no clear call from the source; some entries with a clear call stand among them for comparison. Calls come from the whole dose curve; as a rule, active = well fitted inhibition curve with a large enough effect; inconclusive = small, poorly fitted or top-dose-only effect, or effect the other way; inactive = flat fitted curve, though single readings scatter. A potency beside an inconclusive call is a rough fit, not a confirmed value.

The compounds below were run against Microtubule-associated protein tau (Homo sapiens) (UniProt P10636) (assay: qHTS for Inhibitors of Tau Fibril Formation, Fluorescence Polarization). Settings: K18 P301L tau heparin fibrillization, Alexa594 FP, 6 h; series mostly up to 57.7 µM; activity, negative = inhibition: at the top concentration.
UniProt P10636, sequence (P10636 whole entry, looked up): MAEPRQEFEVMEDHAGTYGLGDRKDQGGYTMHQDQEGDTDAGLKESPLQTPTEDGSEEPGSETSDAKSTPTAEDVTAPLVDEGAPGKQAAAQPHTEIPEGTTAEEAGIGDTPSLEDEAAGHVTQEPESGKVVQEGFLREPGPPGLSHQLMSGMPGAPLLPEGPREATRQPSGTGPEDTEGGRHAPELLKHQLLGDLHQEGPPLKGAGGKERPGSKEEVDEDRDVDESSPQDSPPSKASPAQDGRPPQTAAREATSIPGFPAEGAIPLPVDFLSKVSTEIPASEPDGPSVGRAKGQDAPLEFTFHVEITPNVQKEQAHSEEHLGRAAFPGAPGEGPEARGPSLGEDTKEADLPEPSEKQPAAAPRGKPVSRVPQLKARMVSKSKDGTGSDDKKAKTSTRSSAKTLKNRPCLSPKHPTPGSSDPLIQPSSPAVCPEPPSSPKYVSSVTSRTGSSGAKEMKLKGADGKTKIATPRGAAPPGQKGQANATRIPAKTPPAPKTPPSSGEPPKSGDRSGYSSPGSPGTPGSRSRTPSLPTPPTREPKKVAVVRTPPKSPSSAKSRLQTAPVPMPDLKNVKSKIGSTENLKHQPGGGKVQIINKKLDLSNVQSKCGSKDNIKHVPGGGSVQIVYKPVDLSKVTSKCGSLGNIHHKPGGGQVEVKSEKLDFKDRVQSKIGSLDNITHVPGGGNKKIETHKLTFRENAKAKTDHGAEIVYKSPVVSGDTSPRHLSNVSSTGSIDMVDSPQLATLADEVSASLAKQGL
How it was run: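 Quantitative HTS format: compounds meet 15 uM recombinant K18 P301L tau and Alexa 594-tau tracer in 100 mM sodium acetate pH 7; 20 uM heparin triggers fibrillization at 37 C over 6 hr; FP gives the signal.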
% is set by controls: 0 for no effect and ±100 for the full control effect; potency is the fitted concentration of half-maximal effect; tags give direction and shape of the fitted curve.
Note: nearly all actives have a fitted effect of over 55% in size.

Potency, inconclusive:
COc1ccc(CNc2nc(-c3ccccc3OC)nc3ccccc23)c(OC)c1 31.6 µM [inhibitor, single point], O=C(CSC1=N/C(=C/c2ccco2)C(=O)N1c1ccc(OC(F)F)cc1)NC1CCS(=O)(=O)C1 (stereo not drawn) 31.6 µM [inhibitor, single point], CC(=O)Nc1cccc(Oc2ncnc3scc(-c4ccc(C(C)C)cc4)c23)c1 8.91 µM [inhibitor, partial curve], O=C(NCc1ccc(F)cc1)c1ccc(S(=O)(=O)Nc2cccc(C(F)(F)F)c2)cc1 22.4 µM [inhibitor, single point], CN(C)N1C(N)=C(C#N)C(c2cccnc2)C2=C1CCCC2=O (stereo not drawn) 44.7 µM [inhibitor, single point], Cc1ccc(NC(=O)Cn2c(-c3cncs3)nc3ccccc32)cc1Br 15.8 µM [inhibitor, partial curve], COc1cccc(N2CCN(S(=O)(=O)c3ccc4nc(-c5ccccc5)[nH]c4c3)CC2)c1 7.08 µM [inhibitor, full curve], COC(=O)c1ccc(NC(=O)Nc2ccc(F)cc2)cc1 0.0562 µM [inhibitor, full curve, poor fit], FC(F)(F)c1cccc(NC(=S)N2CCN(c3ccccn3)CC2)c1 6.31 µM [inhibitor, partial curve, poor fit], COc1c(C)cccc1C(=O)Nc1ccc(CN2CCCCC2)cc1 28.2 µM [inhibitor, single point], Cc1cc(O)c(-c2ccnc3cc(-c4ccccc4)nn23)cc1Cl 14.1 µM [inhibitor, partial curve], CC1CCN(CCCNC(=O)c2cc3c(Cl)nc4ccccc4c3s2)CC1 5.62 µM [inhibitor, partial curve], CCN(CC)N=Nc1ccc(C(=O)O)cc1 39.8 µM [inhibitor, single point], CC(=O)OCC1(C)CN(c2ccccc2)N(C(C)=O)C1=O (stereo not drawn) 44.7 µM [inhibitor, single point], Cc1ccc(OCC(=O)N2CC3(C)CC2CC(C)(C)C3)cc1 (stereo not drawn) 2.24 µM [inhibitor, partial curve, poor fit], CCOc1ccc(NC(=O)C2CC(=O)N(C)C(=Nc3ccc4c(c3)OCO4)S2)cc1 (stereo not drawn) 17.8 µM [inhibitor, partial curve], CCN1CCN(C(c2ccccc2)c2c(O)cc(C)n(Cc3ccco3)c2=O)CC1 (stereo not drawn) 22.4 µM [inhibitor, single point], O=C(OC1CCOC1=O)c1cc(-c2cccs2)nc2ccccc12 (stereo not drawn) 12.6 µM [inhibitor, partial curve, poor fit], CCN(CC)S(=O)(=O)c1ccc(Cl)nc1 39.8 µM [inhibitor, single point], COc1cccc(OC)c1C(=O)N1CCN(Cc2ccccc2C)CC1 1.41 µM [inhibitor, full curve], Cc1ccc(C)c(CN2C(=O)c3ccccc3S(=O)c3ccc(C(=O)N4CCN(c5ccccn5)CC4)cc32)c1 (stereo not drawn) 11.2 µM [activator, partial curve, poor fit], Cc1ccc(NC(=S)NCCSc2ccc(Cl)cc2)cc1 35.5 µM [inhibitor, single point], Cn1cc(C(=O)c2ccc(F)cc2)cc1-c1nc2ccccc2n1C 25.1 µM [activator, single point], COc1ccc(N(C)S(=O)(=O)c2cccc3cccnc23)c(OC)c1 44.7 µM [inhibitor, single point], CC(C)(C)c1ccc(-c2csc(NNC3=NCCCCC3)n2)cc1 28.2 µM [inhibitor, partial curve], CCC(=O)Nc1cccc(C2=NOC3(C2)C[C@@H](C(N)=O)N(C(=O)c2ccccc2C(=O)c2ccccc2)C3)c1 (stereo partly drawn) 3.98 µM [inhibitor, partial curve, poor fit], Cn1nc(-c2ccc(C(=O)Nc3cccc(C(F)(F)F)c3)cc2)c2ccccc2c1=O 17.8 µM [inhibitor, partial curve], O=C(Nc1cccc(-c2nc3ccccc3o2)c1)c1cccc(Br)c1 25.1 µM [inhibitor, partial curve], Cc1ccn2c(c1)nc(=S)n2C(=O)c1ccccc1 7.94 µM [inhibitor, partial curve]

Potency, active:
O=C1C2=C(Nc3ccccc3SC2c2ccccc2C(F)(F)F)c2ccccc21 (stereo not drawn) 12.6 µM, CCOc1ccc(NS(=O)(=O)c2ccc3[nH]cc(C(=O)NCc4ccccc4)c(=O)c3c2)cc1 3.55 µM

Potency, inactive:
CC1(C)Oc2ccc(C#N)cc2[C@@H](OC2=CC(=O)CC2)[C@@H]1O

activity, negative = inhibition, inactive:
COc1ccccc1C(=O)Nc1nc2nc(C)c(Cc3ccccc3)c(=O)n2[nH]1 1.91%, CCCCc1c(O)nc(SCC(=O)c2ccccc2)n(-c2ccccc2OC)c1=O 1.8%, COc1ccc(O)c(-c2c(-c3ccc(Cl)cc3)n[nH]c2C)c1 -5.05%, COc1ccc(OC)c(NC(=O)C2CCN(C(=O)c3cccs3)CC2)c1 3.16%, CCN(CC)C(=O)c1sc2c(c1C)c(=O)n(-c1ccc(Cl)c(Cl)c1)c(=O)n2CC(=O)Nc1cccc(OC)c1 -2.3%, CCOc1cc(/C=N/NC(=O)COc2ccc(C)cc2)ccc1OC(=O)c1cccs1 -14.9%, COc1ccc(-c2nnc3c4ccccc4c(-c4ccccc4)nn23)cc1 -1.69%, O=C1NC(=O)C(=C2CCCCCC2)S1 -6.72%, Cc1c(/C=N/NC(=O)CNc2ccccc2)c2ccccn2c1C(=O)c1ccccc1 15.8%, COC(=O)C(NC(C)=O)(Nc1ccc(Br)cn1)C(F)(F)F (stereo not drawn) -3.55%, O=c1c2cccnc2[nH]c(=S)n1CCCN1CCN(c2ccccc2F)CC1 -5.2%
